# Results from PubChem BioAssay AID1508642 (National Center for Advancing Translational Sciences (NCATS), 2021).
# About 200 (0.47%) of roughly 43,000 compounds were called active. Inconclusive results (about 12%) are left out. Calls follow the shape of the dose curve; as a rule, active = well fitted cell-killing curve with a large enough effect; inconclusive = small, poorly fitted or top-dose-only effect, or effect the other way; inactive = flat fitted curve, though single readings scatter. The list shows a part of the results.
# Test: Cell viability qHTS assay in S16 Pmp22-F2sN cells; also: nearly all actives have a fitted effect of over 65% in size
# Details: S16 Pmp22-F2sN Schwann cells (luciferase reporters placed in the Pmp22 gene) viability, CellTiter-Glo, 24 h; series mostly up to 57.5 µM; activity change, negative = cytotoxicity: at the top concentration
# How it was run: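 S16 Schwann cells carrying the Pmp22-F2sN reporter, seeded in 1536-well format, were exposed to library compounds for 24 h at 37C. Viability was read as CellTiter-Glo luminescence after 15 min at room temperature.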
# % is scaled to controls: 0 for no effect and ±100 for the full control effect.
row,Structure (SMILES),"activity change, negative = cytotoxicity"
1,CCCc1cc(=O)n2[nH]c(-c3ccc(C)cc3)nc2n1,inactive: -12.9%
2,Cc1ccc(NC(=O)C2CCCN(c3nnc(-n4c(C)ccc4C)s3)C2)cc1Cl (stereo unspecified),inactive: -12.9%
3,COc1cccc(CNC(=O)C(NS(=O)(=O)c2ccc3nc(C)sc3c2)C(C)C)c1 (stereo unspecified),inactive: 8%
4,CCOC(=O)c1c(C)c(-c2ccccc2)n(CC(=O)NCCc2ccc(C)cc2)c1C,inactive: 14.4%
5,Cc1ccc2nc(CSc3nnc(NC(=O)COc4ccccc4)s3)cc(=O)n2c1,inactive: 0.764%
6,CCOC(=O)c1ccc(NC(=O)c2cc(=O)c3cc(CC)ccc3o2)cc1,inactive: -0.182%
7,CCS(=O)(=O)NCC(c1ccco1)N1CCN(c2ccc(OC)cc2)CC1 (stereo unspecified),inactive: 0.31%
8,Cc1ccccc1CN1c2ccccc2-c2nc(SCC(=O)NCCc3ccccc3)ncc2S1(=O)=O,inactive: -3.89%
9,CCN(CC)c1ccc(-n2nc3cc(C)c(NC(=O)c4ccccc4F)cc3n2)cc1,inactive: 11%
10,Cc1cccc(NC(=O)CSc2nnc(C)c(=O)[nH]2)c1,inactive: -7.78%
11,COc1ccc(S(=O)(=O)N(C)Cc2nc(-c3cccc(C)c3)no2)cc1,inactive: -0.275%
12,O=C(CSc1nc2ccsc2c(=O)n1Cc1ccccc1F)NCc1ccccc1,inactive: 13.4%
13,CCc1ccc(NC(=O)N(Cc2ccc(C)cc2)Cc2cccn2-c2nnc(N3CCCC3=O)s2)cc1,inactive: -15.6%
14,O=C(Cc1csc2ccccc12)NCc1ccccc1F,inactive: 1.39%
15,CCOc1ccc(-c2nc(SCC(=O)Nc3ccc4c(c3)OCCO4)c(-c3ccc(F)cc3)[nH]2)cc1,inactive: -6.85%
16,CN1CCN(C(c2cccc(Br)c2)c2sc3nc(-c4ccco4)nn3c2O)CC1 (stereo unspecified),inactive: -0.973%
17,CCOc1ccc(-c2nonc2NC(=O)c2ccc(C)cc2)cc1OCC,inactive: 2.85%
18,CC(=O)N1CCCc2cc(S(=O)(=O)N3CCN(c4ccc(F)cc4)CC3)ccc21,inactive: -11.8%
19,CCc1cccc(-n2nnc(-c3nc(-c4cccs4)no3)c2N)c1,inactive: 5.85%
20,Clc1ccc2nc(-c3ccc(Br)o3)c(Nc3ccc4c(c3)OCCO4)n2c1,inactive: 8.82%
21,COc1cccc(OC)c1C(=O)Nc1cccc(-c2nc3cc(C)cc(C)c3o2)c1,inactive: 4.64%

row,Structure (SMILES),"activity change, negative = cytotoxicity"
1,COc1ccc(NC(=O)c2noc3c2CSc2ccccc2-3)cc1Cl,inactive: -19.7%
2,Cc1ccc(NC(=O)Cn2c(C)cc(C)c(C#N)c2=O)cc1F,inactive: 16.6%
3,Cc1cc(C)c(/C=C/c2onc(C)c2S(=O)(=O)N2CCC(C(=O)N3CCN(c4ccc(Cl)cc4)CC3)CC2)c(C)c1,inactive: 4.08%
4,Cc1ccc(C(=O)Nc2nc3n(n2)C(c2ccccc2)C=C(c2ccccc2)N3)cc1 (stereo unspecified),inactive: -7.23%
5,CC1CCc2onc(C(=O)N3CCN(c4cccc(C(F)(F)F)c4)CC3)c2C1 (stereo unspecified),inactive: -23.7%
6,COc1ccc(-c2nc3ccccc3s2)cc1NC(=O)c1cc2ccccc2o1,inactive: -12.3%
7,Cc1ccc(NC(=O)CCNS(=O)(=O)c2cccc3nsnc23)cc1,inactive: 7.21%
8,Cc1ccc2nc(-c3ccc(C)c(NC(=O)CSc4ccc(Cl)cc4)c3)oc2c1,inactive: 7.91%
9,CCOc1ccc(N(C(=O)c2ccc(C)cc2)S(=O)(=O)c2ccc3c(c2)n(C)c(=O)n3C)cc1,inactive: -5.49%
10,CCn1cc(S(=O)(=O)c2cc(C)cc(C)c2)c(=O)c2cc(F)c(N3CCC(C)CC3)cc21,inactive: -29.7%
11,COc1ccc(OC)c(NC(=O)c2ccc3c(c2)c(C)c(C)n3Cc2ccc(F)cc2)c1,inactive: -12.5%
12,CCN(CC)C(=O)Cn1c(=O)n(CCCCCC(=O)NCc2ccccc2Cl)c(=O)c2sccc21,inactive: 2.61%
13,Cc1ccc2cccc(NC(=O)c3ccc(-c4cc(Cl)ccc4Cl)o3)c2n1,inactive: 10.2%
14,O=C(NCc1ccc(Cl)cc1)c1cc2ccccc2o1,inactive: 12.4%
15,Cc1ccc(Cl)cc1N1CCN(C(=O)Cn2cnc3nc4c(cc3c2=O)CCCC4)CC1,inactive: -19.3%
16,Oc1ccc(Cl)cc1Nc1nc2ccccc2n2cnnc12,inactive: 8.93%
17,COc1ccc(CNC(=O)CCCc2cn(C)c3ccccc23)c(OC)c1,inactive: 4.77%
18,NC(=O)c1cc(S(=O)(=O)N2CCCCC2)cs1,inactive: -0.335%
19,COc1ccc(CCn2c3c(c(=O)[nH]c2=O)C(NC(=O)c2ccccc2)(C(F)(F)F)C(=O)N3)cc1OC (stereo unspecified),inactive: 9.96%
20,CCNC(=O)CC1C(=O)N(c2ccc(C)cc2)C(=O)N1Cc1ccc(C)cc1 (stereo unspecified),inactive: 19.7%
21,O=C(CCS(=O)(=O)c1ccc2c(c1)NC(=O)CO2)Nc1cccc(C(F)(F)F)c1,inactive: 7.65%

row,Structure (SMILES),"activity change, negative = cytotoxicity"
1,COc1ccc(NC(=O)Cn2nnc(C(=O)NCc3ccccc3Cl)c2N)cc1Cl,inactive: 4.47%
2,CCOC(=O)c1cc(-c2ccccc2)n(CCCC(=O)Nc2cccc(Cl)c2C)c1C,inactive: -15.8%
3,CSc1ccc(CCNC(=O)C(C)n2c(C)c3cnn(-c4ccccc4)c(=O)c3c2C)cc1 (stereo unspecified),inactive: 18.3%
4,Cc1nc(-c2ccc(F)cc2)sc1CCNC(=O)c1ccco1,inactive: -25.1%
5,CCc1ccc(CNC(=O)CCN2C(=O)COc3ccccc32)cc1,inactive: 11.8%
6,Cc1cc(C)cc(NC(=O)Cn2nnc(C(=O)Nc3cc(C)cc(C)c3)c2N)c1,inactive: -5.75%
7,O=C(Cn1c(=O)n(Cc2ccccc2)c(=O)c2oc3ccccc3c21)Nc1ccc(Cl)cc1,inactive: -3.68%
8,Cc1ccc(/C=C/c2onc(C)c2S(=O)(=O)N2CCC(C(=O)N3CCOc4ccccc43)CC2)cc1,inactive: 7.27%
9,CC(=O)Nc1cc(C(=O)NCc2ccc(F)cc2Cl)ccc1Sc1ccc(Cl)cc1,inactive: -22.7%
10,COC(=O)c1cc2oc(C)cc2n1CC(=O)Nc1ccc(C)cc1C,inactive: 4.14%
11,Cc1ccc(-n2ncc3c(NCCCc4ccccc4)ncnc32)cc1C,inactive: -15.2%
12,CC(C)c1ccc(NC(=O)c2ccc(NC(=O)CCS(=O)(=O)c3cccs3)cc2)cc1,inactive: 6.94%
13,Cc1ccc(CCNc2nc3c(S(=O)(=O)c4ccc(C)cc4)nnn3c3ccsc23)cc1,inactive: 1.15%
14,CCS(=O)(=O)N1CC(=O)N(c2cccc(C)c2C)C(C)(C(=O)NC2CCCCC2)C1 (stereo unspecified),inactive: -9.22%
15,CCOC(=O)c1[nH]c(C)c(CCC(=O)Nc2ccc(N(CC)CC)cc2C)c1C,inactive: -24.1%
16,COc1cc(CNC(=O)c2cc3n(n2)CCCN(Cc2ccc(C)cc2)C3=O)cc(OC)c1OC,inactive: -8.42%
17,Cc1c(NC(=O)c2sc3c([N+](=O)[O-])cccc3c2Cl)cccc1-c1nc2ccccc2o1,inactive: 4.54%
18,Cc1ccc(-c2c3c(=O)n(C)c(=O)n(C)c3c3c(C(F)(F)F)nc4ccccc4n23)cc1,inactive: -0.94%
19,O=C1CC(c2ccc(Cl)cc2)Sc2nc(-c3ccc(F)cc3)nn21 (stereo unspecified),inactive: 5.69%
